# Test results from the supplement of paper PMC6828730.
# Structures can show the parent of a compound that is named as a salt. Some of the results follow. Repeats are few or missing, and single values can be far off.
# Assays:
# [1] = system: hiPSC-derived cardiomyocytes; experiment: time to death of most cells in well after compound addition (days); higher = less cardiotoxic; details: screen: 1; 10 µM
# [2] = system: hiPSC-derived cardiomyocytes; experiment: time to death of most cells in well after compound addition (days); higher = less cardiotoxic; extreme values may be limits of the assay; details: 10 µM
SMILES,time to death of most cells in well [1],time to death of most cells in well ([2]; screen: 2),time to death of most cells in well ([2]; screen: 3),time to death of most cells in well ([2]; screen: 4)
Oc1ccc2ccccc2c1SSc1c(O)ccc2ccccc12,2,1.5,3,> 7
Cc1nc(NC(=O)N2CCC[C@H]2C(N)=O)sc1-c1ccnc(C(C)(C)C(F)(F)F)c1 [Alpelisib (BYL719)],> 7,6,> 7,> 7
CCn1c(=O)c(-c2ccc(-c3cncs3)cc2Cl)cc2cnc(Nc3ccc(N4CCN(C)CC4)cc3)nc21,5.5,3.5,> 7,> 7
O=S(=O)(c1cccc2cnccc12)N1CCCNCC1 [Fasudil (HA-1077) HCl],> 7,6,> 7,> 7
Cc1nc(Nc2n[nH]c3c2CN(C(=O)N[C@H](CN(C)C)c2ccccc2)C3(C)C)c2sccc2n1,2,1,5.5,1
Cc1c(F)cc(C(=O)NC2CC2)cc1-c1ccc(C(=O)NCC(C)(C)C)cn1,> 7,5,> 7,> 7
"O=c1cc(-c2ccccc2)oc2c(O)c(O)ccc12 [7,8-Dihydroxyflavone]",> 7,> 7,> 7,> 7
Nc1ccc(-c2ccc3ncc4ccc(=O)n(-c5cccc(C(F)(F)F)c5)c4c3c2)cn1 [Torin 2],3.5,3,5,6
Cc1ccc(Nc2nccc(N(C)c3ccc4c(C)n(C)nc4c3)n2)cc1S(N)(=O)=O [Pazopanib],2.5,2,3,> 7
CNS(=O)(=O)C[C@H]1CC[C@H](N(C)c2[nH]cnc3nccc2-3)CC1 [Oclacitinib],> 7,5.5,> 7,> 7
Cc1ccccc1-n1c(Cn2nc(-c3cccc(O)c3)c3c(N)ncnc32)nc2cccc(C)c2c1=O,> 7,> 7,> 7,> 7
CCCCCCCCCCCCc1ccc(S(=O)(=O)Nc2nncs2)cc1,> 7,> 7,> 7,> 7
COc1cc(Nc2ncc(F)c(Nc3ccc4c(n3)NC(=O)C(C)(C)O4)n2)cc(OC)c1OC [R406 (free base)],> 7,5,> 7,> 7
CCN1CCN(Cc2ccc(C(=O)Nc3ccc(C)c(Oc4ccc5c(c4)CC(=O)N5)c3)cc2C(F)(F)F)CC1,3,3,> 7,> 7
CO[C@H]1C[C@@H]2CC[C@@H](C)[C@@](O)(O2)C(=O)C(=O)N2CCCC[C@H]2C(=O)O[C@H]([C@H](C)C[C@@H]2CC[C@@H](OC(=O)C(C)(CO)CO)[C@H](OC)C2)CC(=O)[C@H](C)/C=C(\C)[C@@H](O)[C@@H](OC)C(=O)[C@H](C)C[C@H](C)/C=C/C=C/C=C/1C,2,> 7,> 7,> 7
CO[C@@H](C)Cn1c(=O)n(C)c2cnc3ccc(-c4cncc(C(C)(C)O)c4)cc3c21,6,4.5,> 7,> 7
Cc1cnc(Nc2ccc(OCCN3CCCC3)cc2)nc1Nc1cccc(S(=O)(=O)NC(C)(C)C)c1,2.5,2.5,2.5,1.5
Nc1nc(NCCNc2ncc(-n3ccnc3)c(-c3ccc(Cl)cc3Cl)n2)ccc1[N+](=O)[O-],> 7,4,> 7,> 7
COc1cc(Nc2nc3ccccc3nc2NS(=O)(=O)c2ccc(NC(=O)c3ccc(C)c(OC)c3)cc2)cc(OC)c1,> 7,6.5,> 7,> 7
CCc1ccc(/C=C2/SC(=S)NC2=O)cc1,> 7,3.5,> 7,> 7
